According to the supplement of paper PMC4967469:
IC50 is the fitted dose that halves viability relative to control wells, and lower means more sensitive; a limit (>, <) means that the fit lies beyond the doses tested. AUC is the area under the same curve over the 256-fold range up to the top dose, as a fraction; values near 1 show little effect. Where the top dose is marked as inferred, it comes from the curve model; the source does not state it.

Experiments:
Assay in all cases: Viability of human cancer cell lines after 72 h of drug (GDSC screen)
SGC0946 = compound: CC(C)N(CCCNC(=O)Nc1ccc(C(C)(C)C)cc1)C[C@H]1O[C@@H](n2cc(Br)c3c(N)ncnc32)[C@H](O)[C@@H]1O [SGC0946]; conditions: top dose 0.5 µM; top dose inferred
Description: (§1)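 Human cancer cell lines in 384-well plates, medium with 10% serum, drug for 72 h over a 256-fold dose range (nine 2-fold or five 4-fold steps up to the top dose). Adherent lines were fixed and stained with the nucleic acid dye Syto60, suspension lines read with resazurin; signal relative to control wells, capped at 0 and 100%. One two-parameter sigmoid per drug and line, fitted in a mixed model over all curves with the slope shared within a line.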

Bryostatin 1 = compound: CCC/C=C/C=C/C(=O)O[C@H]1/C(=C/C(=O)OC)C[C@H]2C[C@H]([C@@H](C)O)OC(=O)C[C@H](O)C[C@@H]3C[C@H](OC(C)=O)C(C)(C)[C@](O)(C[C@@H]4C/C(=C/C(=O)OC)C[C@H](/C=C/C(C)(C)[C@]1(O)O2)O4)O3 [Bryostatin 1]; conditions: top dose 0.008 µM; top dose inferred
Description: as §1

GW-2580 = compound: COc1ccc(COc2ccc(Cc3cnc(N)nc3N)cc2OC)cc1 [GW-2580]; conditions: top dose 20 µM; top dose inferred
Description: as §1

Lenalidomide = compound: Nc1cccc2c1CN(C1CCC(=O)NC1=O)C2=O [Lenalidomide]; conditions: top dose 5 µM; top dose inferred
Description: as §1

Cell Line	AUC (SGC0946)	IC50 (SGC0946)	AUC (Bryostatin 1)	IC50 (Bryostatin 1)	AUC (GW-2580)	IC50 (GW-2580)	AUC (Lenalidomide)	IC50 (Lenalidomide)
SK-PN-DW (Ewing sarcoma, adherent)	0.984	> 0.5 µM	0.986	> 0.008 µM	0.98	> 20 µM	0.919	> 5 µM
SK-UT-1 (soft tissue, adherent)	0.988	> 0.5 µM	0.989	> 0.008 µM	0.983	> 20 µM	0.98	> 5 µM
SKG-IIIa (cervix, adherent)	0.981	> 0.5 µM	0.908	> 0.008 µM	0.98	> 20 µM	0.983	> 5 µM
SKN (uterus, adherent)	0.979	> 0.5 µM	0.981	> 0.008 µM	0.925	> 20 µM	0.975	> 5 µM
SKN-3 (head and neck, adherent)	0.979	> 0.5 µM	0.924	> 0.008 µM	0.982	> 20 µM	0.977	> 5 µM
SLVL (B-cell lymphoma, suspension)	0.984	> 0.5 µM	0.986	> 0.008 µM	0.975	> 20 µM	0.98	> 5 µM
SNB75 (glioma, adherent)	0.976	> 0.5 µM	0.948	> 0.008 µM	0.979	> 20 µM	0.976	> 5 µM
SNG-M (endometrium, adherent)	0.984	> 0.5 µM	0.985	> 0.008 µM	0.958	> 20 µM	0.949	> 5 µM
SNU-182 (liver, adherent)	0.979	> 0.5 µM	0.971	> 0.008 µM	0.976	> 20 µM	0.986	> 5 µM
SNU-387 (liver, adherent)	0.959	> 0.5 µM	0.978	> 0.008 µM	0.961	> 20 µM	0.983	> 5 µM
SNU-423 (liver, adherent)	0.981	> 0.5 µM	0.971	> 0.008 µM	0.947	> 20 µM	0.983	> 5 µM
SNU-449 (liver, adherent)	0.985	> 0.5 µM	0.964	> 0.008 µM	0.982	> 20 µM	0.986	> 5 µM
SNU-C1 (large intestine, suspension)	0.976	> 0.5 µM	0.973	> 0.008 µM	0.977	> 20 µM	0.98	> 5 µM
SU8686 (pancreas, adherent)	0.948	> 0.5 µM	0.986	> 0.008 µM	0.979	> 20 µM	0.983	> 5 µM
SU-DHL-5 (B-cell lymphoma, suspension)	0.994	> 0.5 µM	0.99	> 0.008 µM	0.986	> 20 µM	0.994	> 5 µM
SUIT-2 (pancreas, adherent)	0.985	> 0.5 µM	0.974	> 0.008 µM	0.986	> 20 µM	0.985	> 5 µM
SUP-HD1 (Hodgkin lymphoma, suspension)	0.986	> 0.5 µM	0.988	> 0.008 µM	0.985	> 20 µM	0.982	> 5 µM
SW13 (adrenal gland, adherent)	0.986	> 0.5 µM	0.973	> 0.008 µM	0.987	> 20 µM	0.985	> 5 µM
SW48 (large intestine, adherent)	0.984	> 0.5 µM	0.976	> 0.008 µM	0.975	> 20 µM	0.985	> 5 µM
SW626 (ovary, adherent)	0.981	> 0.5 µM	0.953	> 0.008 µM	0.965	> 20 µM	0.983	> 5 µM
SW756 (cervix, adherent)	0.982	> 0.5 µM	0.942	> 0.008 µM	0.977	> 20 µM	0.978	> 5 µM

Cell Line	AUC (SGC0946)	IC50 (SGC0946)	AUC (Bryostatin 1)	IC50 (Bryostatin 1)	AUC (GW-2580)	IC50 (GW-2580)	AUC (Lenalidomide)	IC50 (Lenalidomide)
SW780 (bladder, adherent)	0.982	> 0.5 µM	0.986	> 0.008 µM	0.985	> 20 µM	0.986	> 5 µM
SW948 (large intestine, adherent)	0.98	> 0.5 µM	0.951	> 0.008 µM	0.972	> 20 µM	0.973	> 5 µM
SW962 (urogenital system, adherent)	0.976	> 0.5 µM	0.893	> 0.008 µM	0.982	> 20 µM	0.977	> 5 µM
SW982 (soft tissue, adherent)	0.983	> 0.5 µM	0.979	> 0.008 µM	0.984	> 20 µM	0.983	> 5 µM
SW1271 (small cell lung carcinoma, adherent)	0.98	> 0.5 µM	0.95	> 0.008 µM	0.978	> 20 µM	0.984	> 5 µM
SW1417 (large intestine, adherent)	0.985	> 0.5 µM	0.985	> 0.008 µM	0.982	> 20 µM	0.986	> 5 µM
SW1573 (lung adenocarcinoma, adherent)	0.975	> 0.5 µM	0.927	> 0.008 µM	0.981	> 20 µM	0.978	> 5 µM
SW1710 (bladder, adherent)	0.983	> 0.5 µM	0.985	> 0.008 µM	0.983	> 20 µM	0.985	> 5 µM
SW1783 (glioma, adherent)	0.99	> 0.5 µM	0.971	> 0.008 µM	0.974	> 20 µM	0.991	> 5 µM
SW1990 (pancreas, adherent)	0.983	> 0.5 µM	0.977	> 0.008 µM	0.98	> 20 µM	0.925	> 5 µM
Saos-2 (osteosarcoma, adherent)	0.978	> 0.5 µM	0.943	> 0.008 µM	0.979	> 20 µM	0.981	> 5 µM
SiHa (cervix, adherent)	0.985	> 0.5 µM	0.915	> 0.008 µM	0.983	> 20 µM	0.987	> 5 µM
T47D (breast, adherent)	0.974	> 0.5 µM	0.929	> 0.008 µM	0.977	> 20 µM	0.977	> 5 µM
T84 (large intestine, adherent)	0.975	> 0.5 µM	0.986	> 0.008 µM	0.978	> 20 µM	0.989	> 5 µM
T98G (glioma, adherent)	0.989	> 0.5 µM	0.98	> 0.008 µM	0.99	> 20 µM	0.99	> 5 µM
T-T (oesophagus, adherent)	0.974	> 0.5 µM	0.958	> 0.008 µM	0.976	> 20 µM	0.963	> 5 µM
TE-1 (oesophagus, adherent)	0.962	> 0.5 µM	0.981	> 0.008 µM	0.967	> 20 µM	0.914	> 5 µM
TE-6 (oesophagus, adherent)	0.984	> 0.5 µM	0.986	> 0.008 µM	0.986	> 20 µM	0.986	> 5 µM
TE-8 (oesophagus, adherent)	0.984	> 0.5 µM	0.943	> 0.008 µM	0.985	> 20 µM	0.985	> 5 µM
TE-9 (oesophagus, adherent)	0.985	> 0.5 µM	0.969	> 0.008 µM	0.985	> 20 µM	0.987	> 5 µM
TE-12 (oesophagus, suspension)	0.978	> 0.5 µM	0.953	> 0.008 µM	0.957	> 20 µM	0.98	> 5 µM

Cell Line	AUC (SGC0946)	IC50 (SGC0946)	AUC (Bryostatin 1)	IC50 (Bryostatin 1)	AUC (GW-2580)	IC50 (GW-2580)	AUC (Lenalidomide)	IC50 (Lenalidomide)
TE-15 (oesophagus, suspension)	0.983	> 0.5 µM	0.947	> 0.008 µM	0.975	> 20 µM	0.985	> 5 µM
TGBC1TKB (biliary tract, adherent)	0.988	> 0.5 µM	0.988	> 0.008 µM	0.987	> 20 µM	0.986	> 5 µM
TGBC11TKB (stomach, adherent)	0.99	> 0.5 µM	0.991	> 0.008 µM	0.99	> 20 µM	0.992	> 5 µM
TGW (neuroblastoma, adherent)	0.98	> 0.5 µM	0.992	> 0.008 µM	0.99	> 20 µM	0.992	> 5 µM
TK10 (kidney, adherent)	0.979	> 0.5 µM	0.937	> 0.008 µM	0.982	> 20 µM	0.968	> 5 µM
TK (B-cell lymphoma, suspension)	0.985	> 0.5 µM	0.983	> 0.008 µM	0.987	> 20 µM	0.989	> 5 µM
TMK-1 (stomach, adherent)	0.984	> 0.5 µM	0.878	> 0.008 µM	0.964	> 20 µM	0.986	> 5 µM
TOV-21G (ovary, adherent)	0.952	> 0.5 µM	0.974	> 0.008 µM	0.975	> 20 µM	0.951	> 5 µM
TOV-112D (ovary, adherent)	0.984	> 0.5 µM	0.983	> 0.008 µM	0.981	> 20 µM	0.985	> 5 µM
TT2609-C02 (thyroid, adherent)	0.985	> 0.5 µM	0.982	> 0.008 µM	0.981	> 20 µM	0.985	> 5 µM
TT (thyroid, adherent)	0.98	> 0.5 µM	0.878	> 0.008 µM	0.977	> 20 µM	0.967	> 5 µM
TYK-nu (ovary, adherent)	0.983	> 0.5 µM	0.983	> 0.008 µM	0.977	> 20 µM	0.985	> 5 µM
U251 (glioma, adherent)	0.987	> 0.5 µM	0.971	> 0.008 µM	0.983	> 20 µM	0.987	> 5 µM
U-2-OS (osteosarcoma, adherent)	0.984	> 0.5 µM	0.984	> 0.008 µM	0.985	> 20 µM	0.977	> 5 µM
U-87-MG (glioma, adherent)	0.983	> 0.5 µM	0.985	> 0.008 µM	0.977	> 20 µM	0.985	> 5 µM
U-118-MG (glioma, adherent)	0.984	> 0.5 µM	0.985	> 0.008 µM	0.971	> 20 µM	0.982	> 5 µM
U-698-M (B-cell leukaemia, suspension)	0.986	> 0.5 µM	0.959	> 0.008 µM	0.987	> 20 µM	0.979	> 5 µM
UACC-62 (melanoma, adherent)	0.984	> 0.5 µM	0.967	> 0.008 µM	0.982	> 20 µM	0.983	> 5 µM
UACC-893 (breast, adherent)	0.98	> 0.5 µM	0.977	> 0.008 µM	0.977	> 20 µM	0.96	> 5 µM
UM-UC-3 (bladder, adherent)	0.987	> 0.5 µM	0.957	> 0.008 µM	0.979	> 20 µM	0.86	3.79 µM
